± gives the standard deviation of the averaged measurements. The list shows a part of the results.
system: PfAP2-LT AP2 domain (GST-tagged); experiment: gcPBM binding intensity (ln(normalized median fluorescence intensity)); higher = stronger DNA binding
Summary of the method: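 Binding of GST-tagged P. falciparum DNA-binding domains, expressed in E. coli and used at about 25 μg on average, was carried out for 1 h in 1× PBS containing 1% milk, 0.2 mg/ml BSA, 0.5% salmon testes DNA and 0.03% Triton X-100. The target was an Agilent 4 × 180k array of primer-extended double-stranded 36-bp intergenic genomic probes plus negative controls, read with Alexa488 anti-GST antibody at 488 nm. Binding intensity is the highest Masliner-normalised natural-log median intensity across replicate spots of either probe orientation.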

Sequence | gcPBM binding intensity (ln)
ACATATATAAAATAATGTACATTTTTAAGAATGCGT [XGTACX_site7654] | 8.79 ± 0.42
TATATATATATATATAAGCTTATAATAAAACAAAAA [XGTACX_negctrl_site568] | 8.91 ± 0.4
ATAGCAATAATGGAAAGTACAAAAAAACTTGTTATA [XGTACX_site8518] | 8.79 ± 0.52
TGTATTAATAAAAATACACACATCATATTATATAAA [CACACA_site3534] | 8.77 ± 0.35
CCTTTTAAGAGTTGCACACGTACAAAAAAAAAAAAA [CACACA_site3492] | 8.88 ± 0.54
GGCGATATAGAACTACGTACTTATACAAATTATAAT [XGTACX_site2307] | 8.76 ± 0.39
AATAATAAAAAATACGCACACATGTAAACGTATGTT [CACACA_site3336] | 9.08 ± 0.38
ACACATAAATGTATATATATATAAATATATGTATGT [CACACA_negctrl_site1532] | 9.12 ± 0.33
ATAAATGTTATGCATACACACTTTATACCTATTTAA [CACACA_site5967] | 8.9 ± 0.4
AATCCTTACAGACACACACACACGAATAAATAAAAA [CACACA_site480] | 9.68 ± 0.3
TATGTATTATCAAAAAGTACTAAAAAAAAATAATAA [XGTACX_site4703] | 8.38 ± 0.5
TATATATGTATATGTGTGCACCTTATTTCTTTTATT [GTGCAC_site9513] | 9.33 ± 0.4
TTATAATTTTTGAGCACACACAAGCATATATATATA [CACACA_site1798] | 9.275 ± 0.05
AATAAATACATACATACATGCATACATATATCTCAA [TGCATGCA_site1040] | 8.97 ± 0.4
AAAAATAAAATATATATATATATATATATATATATA [CACACA_negctrl_site58] | 9.53 ± 0.29
TATTTTTATATATATACACACTTACAGATATATATT [CACACA_site5905] | 8.97 ± 0.45
TGAAAAAAAAAATGCACACGCATACATATAATATGT [CACACA_site641] | 9.13 ± 0.3
AAACATAAATATGAGAGTACAAAAAATATTATGAAT [XGTACX_site151] | 8.96 ± 0.53
ATCTCTTAAATTTTACGTACTTATTTTATCTTCTTA [XGTACX_site8877] | 9.1 ± 0.65
TTATAATATATTACAAGTTCATTCATATAATATGTT [CACACA_negctrl_site1695] | 8.64 ± 0.44
TAAATAAATTTGCACTGTACGCAAAAAAAAAAAAGA [XGTACX_site8781] | 8.78 ± 0.63
GTATATATATATTTATGTACTTACCTACATAATTAT [XGTACX_site4435] | 9.26 ± 0.53

Sequence | gcPBM binding intensity (ln)
AAAGGGGAGATATGAACACACAAAAAAAAAATATAT [CACACA_site7378] | 9.06 ± 0.65
TATATATATTTTAAATGTACTTATAAATTACCACTT [XGTACX_site5673] | 8.56 ± 0.51
AATATTTACAGACATGCGCACACATAAATAAATAAT [CACACA_site8760] | 9.38 ± 0.38
AAATAAAATTTTTGTTGTACTTATTTTTAGTATACT [XGTACX_site4254] | 8.72 ± 0.42
AGAAAGGATATAAGCGTAGCTATATCATAAAAAATG [GTGCAC_negctrl_site332] | 8.72 ± 0.53
AATAAATTAGAAGGATGTACTTTGTTTAATATAGAG [XGTACX_site1943] | 8.54 ± 0.46
AGGTTATATATGAACAAAAATAAAATATTCATAGGC [TGCATGCA_negctrl_site46] | 8.91 ± 0.5
TAATATAATCTGAGTGCACACAAATAAATAAACATA [CACACA_site8032] | 9.16 ± 0.44
TATGCAAATTAATAATGTACGAAATATTTATAATTT [XGTACX_site2324] | 8.59 ± 0.4
ATGTTATAAAATATATGTACATATTTATATAAAATA [XGTACX_site5766] | 8.62 ± 0.5
ATATTATATATATGATGTACTAAATATATTATTATG [XGTACX_site1703] | 8.71 ± 0.41
ATAAATAATTAGAATTGTACAAAAATTATATATATG [XGTACX_site5107] | 8.73 ± 0.43
TATTTTATATTATCATGTACAAAAAAAAAGAAAAGA [XGTACX_site5379] | 8.47 ± 0.43
TTTATATTCTTTTTTTAACACACAAAAAAAATAAAA [CACACA_site8574] | 8.22 ± 0.43
TCTATTAATGAATATACACACATTATATATATATAT [CACACA_site5410] | 9.02 ± 0.38
TATATAAAAAGTAATTGTACATATATATATATATAT [XGTACX_site7953] | 9.32 ± 0.042
ATATATTTATATAAATGTACACGTGAATATATAATA [XGTACX_site1166] | 8.97 ± 0.32
ATATGTAAAATGAAGATACATACATACATACATACA [CACACA_negctrl_site715] | 9.4 ± 0.24
ATAATATGCAATATTACACACAATTCATCATTTTTT [CACACA_site7477] | 8.96 ± 0.42
GTATATTTAAATAAAAGTACGTAAAGATATATTTAA [XGTACX_site8087] | 8.86 ± 0.57
ACATATGAATATTTTTGTACGTATATTGTTATTCTT [XGTACX_site4720] | 9.09 ± 0.44
